Reference: the supplement of paper PMC3334620
The full ranking holds about 33,000 sequences; the median of “E-score (-0.5 to 0.5)” is about -0.054, and the highest 2% start at about 0.39. The list shows a part of the results.

What follows are sequences tested against Ylr278c (UniProt Q05854) (assay: PBM E-score (8-mer binding enrichment) (E-score (-0.5 to 0.5)); higher = stronger / more preferred TF binding; most listed sequences are background and not binding sites). Details: protein concentration: 200 nM; construct: GST-DNA-binding domain.
Protocol: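 Universal 'all 10-mer' protein binding microarrays (Agilent AMADID 015681) probed with GST-tagged S. cerevisiae TFs (full-length or DBD) made by in vitro transcription/translation (PURExpress), about 100-200 nM. Bound TF was detected with fluorescent anti-GST. Each ungapped 8-mer (which stands for itself and its reverse complement) is scored by the PBM enrichment score (E-score), a modified Wilcoxon-Mann-Whitney statistic from -0.5 to +0.5, computed with the Universal PBM Analysis Suite. Scale: above 0.35 generally sequence-specific binding.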

Sequence | PBM E-score
ACTGGAGG | -0.0832
GCTACCAA | -0.0501
GCCGCGCC | 0.137
AGATAGTG | -0.00772
GCGTTGCA | 0.0517
AAAGCCTG | -0.223
GCCTCGAA | -0.115
TAGGCCTA | -0.323
ATAGGGAC | -0.162
GTTCGCTA | -0.132
ATTCATGC | 0.00651
ACCCTGAA | -0.0822
AGCAACGA | -0.198
GATACGCA | -0.238
GGGGCACA | -0.0701
GGCAAGAA | -0.0515
GAGCAGGA | -0.0113
TAAGAACA | 0.0282
ACACAGTG | -0.0585
GTTCTTTA | -0.0613
GATCAACC | 0.0685
ATTGAGGA | -0.051
AAGGGTGG | -0.221
AGCCACCA | -0.223
ATATATAG | 0.0481

Sequence | PBM E-score
TCTAATAA | -0.175
ACGTATGC | -0.065
AATGATGA | -0.0929
CTGGGATA | 0.0199
AGAATTTA | -0.0511
TCGTTTAA | -0.281
TCGCGACA | -0.00641
CCAGGGGA | 0.014
CTTACCGA | 0.0404
AAGCATGA | -0.0695
TCGCAAAA | 0.0186
GGCGATAC | 0.113
TCGCTCAA | -0.103
ACGCGCCA | -0.0653
AGTCAAGC | -0.206
CAAAGGAC | -0.249
ATTTTTAA | 0.139
CGATGGTA | -0.0705
GCAACACC | 0.113
CCACCCAA | -0.0641
AATAACGG | 0.234
GACGATGC | -0.0415
TCGCGAGA | 0.0984
AGCTACGG | -0.0612
CTCCTGTC | -0.141

Sequence | PBM E-score
ATAAGGAG | 0.0699
GCCGTTAC | 0.183
CTCCATCA | 0.0402
GGTGGCAC | -0.0782
AATGGGCA | -0.179
CGAAACCG | 0.276
CAACTATC | -0.154
GCCACAGA | -0.146
CAACAAGG | -0.101
CTGTGCAC | -0.193
AAAAATGA | -0.148
TCCTGAAA | 0.0212
AGGTTATC | -0.0309
CCGTCCAC | 0.152
AGACTGTA | -0.188
ATCACGTC | -0.0735
AATGAAAA | 0.0333
AATGGTGG | -0.149
ACTGTCGG | 0.305
CTACGATA | -0.16
GTGGCGCA | -0.132
GCGTCGGA | 0.438
ATAAAAGA | -0.13
GCTCTAAA | -0.284
CCTATTCC | 0.193

Sequence | PBM E-score
AGATCGGG | 0.222
ACAAAGCC | 0.0747
AGGTTCGA | -0.0589
AATGATTG | -0.0396
TAAACACA | -0.183
ATGTCAAC | -0.0364
AGGATCCG | 0.226
GGGTGACA | 0.0121
AGTCGGAA | 0.408
TCCAGCAA | -0.373
CGGTTTAG | 0.096
AGCAGAAT | -0.0911
ATGAATAA | -0.189
GACGGACC | 0.284
AGGGAACT | -0.0186
GCTATGGA | -0.0959
CGCGCATC | 0.0969
ATCTGGGA | -0.273
CAAGGGCG | -0.0936
CTCCTTCC | -0.0757
ACGCAGAT | 0.218
CAAGATTC | 0.0907
GAATCAGA | -0.00635
AGATAGAC | -0.185
ATATATGC | 0.0523

Sequence | PBM E-score
ACGCTTGG | -0.238
CTGCTTGA | -0.294
AGCTAACT | 0.00346
ACAGTATC | -0.228
AGAAGGCG | -0.15
CTGGATCC | 0.162
GGGTGGGA | 0.16
AATACGGT | -0.0632
GAACTCTC | 0.0657
GATCCTTA | -0.268
ACACGCAT | -0.0465
CACCAAAC | -0.119
ATTACTTG | -0.244
ATGCGCTG | -0.0507
CCCGTGGA | 0.0749
CCCCCCAA | -0.204
GAGGAACA | -0.0163
CCGCCGTA | 0.354
CTGTGACC | -0.0578
GCGCCTAC | 0.0176
AACCAGGA | 0.00985
TAGCAAAA | 0.0592
GTGACCAC | 0.00848
CCTAGACC | -0.209
CTACCATA | -0.196

Sequence | PBM E-score
AAAAGCTC | -0.0262
CGTGTAAA | -0.0849
CCTTGGTC | -0.221
CTATAGAG | -0.103
CGCCACGC | 0.0477
TCCCTGAA | -0.217
CTAGTCTA | -0.232
AAATTCGT | 0.0199
AACTCTAT | 0.0647
CCCGGTAA | 0.309
ACTACTAA | -0.00405
AATCTTTA | -0.0903
ACCAGTTG | -0.202
CGATTGCC | 0.157
CGCCGCAA | 0.343
AGTGCACG | -0.101
AGGTTTTA | -0.0246
CAATATGC | 0.0153
ATCGCGTC | -0.0429
ACTTGACT | -0.146
CGCTCCTA | -0.00469
AGCAAAAG | -0.275
CCTAGAAA | -0.0836
CTCGATAC | -0.0817
AAGTGTAT | -0.261

Sequence | PBM E-score
CCTATCAA | -0.099
CAGCGGCG | 0.225
TACTTAAA | -0.0424
CGCAGGAA | 0.057
AACGCTGA | -0.129
TGTAAAAA | -0.125
CAGGATGA | -0.276
AACTAGCT | -0.285
ATGCGTTC | 0.025
ATCGGAGA | 0.455
GAACGGCC | 0.15
AGTGCTAG | -0.0906
GTGAACAA | 0.0369
AATCTGTC | 0.0271
ACGATACA | -0.235
ACTACCCC | 0.0399
AAACAGGG | -0.167
ACCCCGAA | 0.392
AAGTCCTA | 0.0365
ACGCTTGC | -0.164
AAAGACGC | -0.0982
TATCTCCA | 0.0459
